PubChem BioAssay AID720707 (National Center for Advancing Translational Sciences (NCATS), 2013)
Hit rate of the full screen: of about 360,000 compounds, about 270 (0.075%) were called active. This list was built around the results that the source calls inconclusive (neither active nor inactive); the mix of calls is not that of the screen. Calls follow the shape of the dose curve; as a rule, active = well fitted activation curve with a large enough effect; inconclusive = small, poorly fitted or top-dose-only effect; inactive = no such curve, though single readings can be large or run the other way. No potency is given beside an inconclusive call; the fits are too rough.

Target: Rap guanine nucleotide exchange factor 3 (Homo sapiens) (UniProt O95398)
Assay: qHTS for Agonist of cAMP-regulated guanine nucleotide exchange factor 3 (EPAC1): primary screen; also: nearly all actives have a fitted effect of over 60% in size
Settings: biochemical assay; series mostly up to 154 µM
How it was run: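 Normalized to 6.5 mM cAMP, activity reflects EPAC1-catalysed release of BODIPY-GDP from Rap1B, followed kinetically over 30 min at 480 nm excitation, 540 nm emission. Reaction contained 100 nM EPAC1, 250 nM Rap1B-BODIPY-GDP, 50 uM GDP.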
Potency is read from the fitted curve at half-maximal effect; tags tell the direction and shape of the fitted curve.

Chain of UniProt O95398 (O95398 whole entry, looked up): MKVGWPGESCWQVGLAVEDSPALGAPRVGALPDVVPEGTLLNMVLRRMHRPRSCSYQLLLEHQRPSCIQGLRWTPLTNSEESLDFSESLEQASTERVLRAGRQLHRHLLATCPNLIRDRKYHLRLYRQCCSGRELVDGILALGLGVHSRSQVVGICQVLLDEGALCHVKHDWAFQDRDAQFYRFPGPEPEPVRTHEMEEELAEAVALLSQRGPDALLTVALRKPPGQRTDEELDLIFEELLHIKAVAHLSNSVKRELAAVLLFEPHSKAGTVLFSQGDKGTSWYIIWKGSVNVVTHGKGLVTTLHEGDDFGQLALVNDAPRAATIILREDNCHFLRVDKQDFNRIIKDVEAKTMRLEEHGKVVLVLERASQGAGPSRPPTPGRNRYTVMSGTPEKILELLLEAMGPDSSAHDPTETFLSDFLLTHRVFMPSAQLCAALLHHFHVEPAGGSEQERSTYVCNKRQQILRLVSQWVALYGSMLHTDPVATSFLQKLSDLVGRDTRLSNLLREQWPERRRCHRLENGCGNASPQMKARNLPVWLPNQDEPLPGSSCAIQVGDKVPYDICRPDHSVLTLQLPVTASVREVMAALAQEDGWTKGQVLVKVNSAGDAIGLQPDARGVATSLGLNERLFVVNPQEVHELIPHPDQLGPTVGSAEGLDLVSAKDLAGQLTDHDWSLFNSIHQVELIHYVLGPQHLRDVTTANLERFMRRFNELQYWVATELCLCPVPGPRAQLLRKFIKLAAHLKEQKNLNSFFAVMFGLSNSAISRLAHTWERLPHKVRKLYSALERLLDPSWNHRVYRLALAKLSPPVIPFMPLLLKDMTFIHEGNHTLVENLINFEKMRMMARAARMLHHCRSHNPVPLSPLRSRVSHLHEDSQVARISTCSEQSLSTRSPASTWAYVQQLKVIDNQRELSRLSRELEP

**Q.** Which Potency does the source give for `COc1ccc(/C=N/Nc2ccc(C(=O)O)cc2)cc1OC` here?
**A.** The Potency was “inactive”.

**Q.** `CC(=O)c1ccc(NC(=O)CSc2nc(Nc3ccccc3)nc(N3CCOCC3)n2)cc1` was tested. Which Potency did it give?
**A.** The Potency was inconclusive [activator, full curve].

**Q.** Which Potency does the source give for `O=C(CSc1ncccn1)Nc1ccc2c(c1)OCO2` here?
**A.** The Potency was “inactive”.

**Q.** `CC(=Nc1ccccc1)c1sc2ccccc2c1O` was tested. Which Potency did it give?
**A.** Its Potency is inconclusive [activator, single point].

**Q.** For `CCC(=O)Nc1ccc(N2CCCCC2)c(C(=O)Nc2ccc(OC)cc2)c1`, which Potency is on record?
**A.** Its Potency is inconclusive [activator, full curve].

**Q.** `Cc1nc(N)ncc1Sc1ccc(Cl)cc1` was tested. Which Potency did it give?
**A.** Its Potency is “inactive”.

**Q.** Which Potency does the source give for `Nc1ccc2nc3c(=O)n(C4CCCCC4)c(=O)[nH]c3nc2c1` here?
**A.** The Potency was inconclusive [activator, single point].

**Q.** Which Potency does the source give for `CC(=O)Nc1ccc(N=Cc2c(O)c(C(=O)Nc3ccccc3)cc3ccccc23)cc1` here?
**A.** The Potency was inconclusive [activator, partial curve].

**Q.** With `Oc1[nH]c2ccccc2c1N=Nc1ccccc1F` as the compound, how does the Potency read?
**A.** The Potency was inconclusive [activator, single point].

**Q.** Which Potency does the source give for `O=c1[nH][nH]c2c(N=Cc3ccccc3O)ccc(F)c12` here?
**A.** Its Potency is “inactive”.

**Q.** Which Potency does the source give for `O=c1[nH]nc(CNc2ccc(C(F)(F)F)cc2)c2ccccc12` here?
**A.** Its Potency is “inactive”.

**Q.** With `CCOc1ccc2nc(NC3=NC(c4ccc(OC)cc4)CC(=O)N3)nc(C)c2c1` (stereo not given) as the compound, how does the Potency read?
**A.** Its Potency is inconclusive [activator, partial curve].

**Q.** How did the Potency turn out when `O=C(CN1C(=O)NC2(CCCCC2)C1=O)Nc1nc2c(F)cc(F)cc2s1` was run?
**A.** Its Potency is inconclusive [activator, single point].

**Q.** `O=C(CSc1nnc(SCc2ccccc2)s1)N/N=C/c1c[nH]c2ccccc12` was tested. Which Potency did it give?
**A.** The Potency was “inactive”.

**Q.** `CC(=O)c1cccc(NC(=O)c2cc(-c3ccco3)on2)c1` was tested. Which Potency did it give?
**A.** The Potency was “inactive”.

**Q.** `CC1CCc2c(sc3nc(SCC(=O)O)n(-c4ccccc4)c(=O)c23)C1` (stereo not given) was tested. Which Potency did it give?
**A.** The Potency was inconclusive [activator, single point].

**Q.** Which Potency does the source give for `CC(OC(=O)CNC(=O)COc1ccccc1)C(=O)N(C)Cc1ccccc1` (stereo not given) here?
**A.** Its Potency is inconclusive [activator, full curve, poor fit].

**Q.** Which Potency does the source give for `Cc1nn(CC(=O)N(C)C2CCS(=O)(=O)C2)c(C)c1[N+](=O)[O-]` (stereo not given) here?
**A.** The Potency was inconclusive [activator, single point].

**Q.** How did the Potency turn out when `Cc1cc2c(cc1C)-n1nnnc1C(N1CCN(C(=O)OCc3ccccc3)CC1)C(=O)N2` (stereo not given) was run?
**A.** Its Potency is inconclusive [activator, partial curve].

**Q.** With `Cc1ccc(/C=C2\SC(=O)N(CCNC(=O)C3CSC4(C)CCC(=O)N34)C2=O)cc1` (stereo not given) as the compound, how does the Potency read?
**A.** Its Potency is inconclusive [activator, partial curve, poor fit].

**Q.** With `Cc1ccc(CNc2ccc3c(c2)ncn3C)cc1` as the compound, how does the Potency read?
**A.** The Potency was “inactive”.

**Q.** Which Potency does the source give for `O=C1CCCc2ccccc2N1Cc1ccc(Cl)cc1Cl` here?
**A.** The Potency was inconclusive [activator, partial curve].

**Q.** `CN(C)CCNc1ccc2ncn3c4ccc(O)cc4c(=O)c1c23` was tested. Which Potency did it give?
**A.** The Potency was inconclusive [activator, partial curve].

**Q.** `CCN(CC)C(=O)c1sc2nc(-c3cccs3)cc(-c3ccc(Cl)cc3)c2c1N` was tested. Which Potency did it give?
**A.** Its Potency is inconclusive [activator, single point].

**Q.** With `O=C(CN1CCOCC1)NN=C1CCCCCCCCCCC1` as the compound, how does the Potency read?
**A.** Its Potency is “inactive”.

**Q.** How did the Potency turn out when `COc1ccc(OC)c(CN2C(=O)c3ccccc3C2c2nnnn2-c2ccc3c(c2)OCCO3)c1` (stereo not given) was run?
**A.** The Potency was “inactive”.

**Q.** Which Potency does the source give for `Cc1ccc(OCc2cc(C(=O)N3CCN(C4CCCC4)CC3)no2)cc1C` here?
**A.** The Potency was inconclusive [activator, partial curve, poor fit].

**Q.** How did the Potency turn out when `COc1ccccc1C1CCN(C(=O)c2ccc(C(C)(C)C)cc2)CC1` was run?
**A.** Its Potency is inconclusive [activator, partial curve].

**Q.** For `O=C(O)c1ccccc1N/N=C/c1c(Sc2nnnn2-c2ccccc2)nc2ccccn2c1=O`, which Potency is on record?
**A.** Its Potency is inconclusive [activator, partial curve].

**Q.** How did the Potency turn out when `CCN1CCc2c(sc(NC(=O)c3ccc(S(=O)(=O)N4CCCCCC4)cc3)c2C(=O)NC)C1` was run?
**A.** The Potency was active: 112 µM.

**Q.** `Cc1nc(SCCO)c([N+](=O)[O-])[nH]1` was tested. Which Potency did it give?
**A.** The Potency was “inactive”.

**Q.** With `Cc1cccc(NC(=O)Cc2noc3ccccc23)c1` as the compound, how does the Potency read?
**A.** Its Potency is “inactive”.

**Q.** For `CC(C)(C)c1cc(NC(=O)COC(=O)c2ccc(O)cc2O)n(-c2ccccc2)n1`, which Potency is on record?
**A.** Its Potency is inconclusive [activator, partial curve, poor fit].

**Q.** For `O=S(=O)(c1ccc(Cl)s1)N1CCN(CCc2ccccc2)CC1`, which Potency is on record?
**A.** Its Potency is inconclusive [activator, single point].

**Q.** For `O=C(Nc1cccc(Br)c1)c1cc2ccccc2o1`, which Potency is on record?
**A.** Its Potency is inconclusive [activator, partial curve].

**Q.** `CCc1ccc(N=C2NC(=O)/C(=C/c3ccc(OCC(=O)O)cc3)S2)cc1` was tested. Which Potency did it give?
**A.** Its Potency is inconclusive [activator, partial curve].

**Q.** For `Cn1c(/C(C#N)=C/c2ccc(-c3ccc(S(N)(=O)=O)cc3)o2)nc2ccccc21`, which Potency is on record?
**A.** Its Potency is inconclusive [activator, single point].

**Q.** For `CC1CC1C(=O)OCC(=O)NNC(=O)COc1ccc(Br)cc1` (stereo not given), which Potency is on record?
**A.** The Potency was inconclusive [activator, single point].

**Q.** With `Cc1cccc(NC(=S)NCCC(c2ccccc2)c2ccccc2)c1` as the compound, how does the Potency read?
**A.** Its Potency is “inactive”.

**Q.** With `CN(C)c1ccc(/C=C(/C(=O)c2ccc(Cl)cc2Cl)n2cncn2)cc1` as the compound, how does the Potency read?
**A.** Its Potency is active: 100 µM.

**Q.** `Cc1cc2nc3c(=O)n(C4CCCCC4)c(=O)[nH]c3nc2cc1N` was tested. Which Potency did it give?
**A.** The Potency was active: 112 µM.

**Q.** `COc1ccc2oc(C(=O)OC(C)C(=O)N(C)c3ccccc3)c(C)c2c1` (stereo not given) was tested. Which Potency did it give?
**A.** Its Potency is inconclusive [activator, full curve, poor fit].

**Q.** How did the Potency turn out when `CCC(C)N(C(=O)Cn1c(=O)cnc2ccccc21)C1CCS(=O)(=O)C1` (stereo not given) was run?
**A.** Its Potency is inconclusive [activator, single point].

**Q.** Which Potency does the source give for `CC(=O)Nc1ccc(S(=O)(=O)N2CCN=C2SCc2cccc(C)c2)cc1` here?
**A.** The Potency was inconclusive [activator, partial curve].

**Q.** Which Potency does the source give for `CC1CCN(S(=O)(=O)c2ccc(NC(=O)Cc3ccccc3)cc2)CC1` here?
**A.** Its Potency is inconclusive [activator, full curve, poor fit].
